In PubChem BioAssay AID686970 (National Center for Advancing Translational Sciences (NCATS), 2013):
Out of some 360,000 compounds screened, about 6,000 (1.7%) were called active. Inconclusive means that the source gave no clear call. Such entries were picked first, then a sample of the others. Calls come from the whole dose curve; as a rule, active = well fitted cell-killing curve with a large enough effect; inconclusive = small, poorly fitted or top-dose-only effect, or effect the other way; inactive = flat fitted curve, though single readings scatter. Potencies of inconclusive entries are left out as doubtful fits.

experiment: qHTS for induction of synthetic lethality in tumor cells producing 2HG: qHTS for the HT-1080-NT fibrosarcoma cell line; settings: HT-1080-NT fibrosarcoma viability, CellTiter-Glo ATP luminescence, 48 h; activity, negative = less viability: at 46.1 µM (top of the series) unless noted;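 note: NT is the 2HG producing partner of a matched IDH1 knockdown line; nearly all actives have a fitted effect of over 55% in size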;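 for activity, negative = less viability: 0% = DMSO-treated cells and -100% = media-only wells without cells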
Procedure, shortened: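 Read-out is CellTiter-Glo luminescence after 10 minutes at room temperature, following 48 hours' compound treatment of HT-1080-NT cells (750 cells/well, RPMI, 5% FBS, 37 degrees C).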
Potency is the fitted concentration of half-maximal effect; tags give direction and shape of the fitted curve.

SMILES | Potency | activity, negative = less viability
COc1ccccc1NC(=O)COc1cc(Br)c(CNCCCN2CCOCC2)cc1OC | inconclusive [cytotoxic, single point] | –
COc1cc(C(=O)NC(CCSC)C(=O)OCC(=O)C(C)(C)C)cc(OC)c1OC (stereo not drawn) | inconclusive [rising, single point] | –
COC(=O)c1sc(NC(=S)NC(=O)c2ccccc2)nc1C | inconclusive [rising, single point] | –
Cc1ccc(C(=O)CSc2nnc3c4ccccc4nc(C(C)(C)C)n23)cc1 | inactive | –
COc1ccc(S(=O)(=O)N(C)CC(=O)NCCCn2ccnc2)cc1Cl | – | inconclusive: 1.62%
O=C(N/N=C/c1cccc(F)c1)c1cc(-c2ccco2)nc2ccccc12 | inconclusive [cytotoxic, partial curve] | –
COc1cc2cc3c(N)c(C(=O)Nc4sc(C)c(C)c4C#N)sc3nc2cc1OC | inconclusive [cytotoxic, single point] | –
CCn1c(SCC(=O)Nc2cc(C)c(Cl)cc2OC)nnc1-c1ccco1 | – | inconclusive: -30.4% [cytotoxic]
COC(=O)c1[nH]c2c(c1C)C(=O)CC(c1cccs1)C2 (stereo not drawn) | active: 1.03 µM | –
Cc1ccc(NC2=Nc3ccccc3N3C2=Nc2c(c(C)nn2-c2ccccc2)C3c2ccc(O)c(O)c2)cc1 (stereo not drawn) | active: 23.1 µM | –
Cc1cccc(C(=O)NNC(=O)c2c(-c3ccccc3Cl)noc2C)c1O | inactive | –
O=C(c1cc(C2CCCCN2S(=O)(=O)c2ccccc2)on1)N1CCOCC1 (stereo not drawn) | inconclusive [rising, single point] | –
CN(C)CCCN(C(=O)/C=C/c1cccs1)c1nc2ccc(F)cc2s1 | active: 9.2 µM | –
CO/N=C/C(=N\Nc1ccc(C)cc1)C(=O)c1ccc(OC)cc1 | inconclusive [cytotoxic, full curve] | –
c1coc(Cn2c(-c3ccco3)nc3ccccc32)c1 | inactive | –
CCOC(=O)[C@]12CCCC=C1N(Cc1ccc(Cl)cc1Cl)C(=O)[C@H](CC(=O)NCC1CCCCC1)C2 | inconclusive [cytotoxic, single point] | –
Cc1c(C(=O)N2CCCCC2)c(S(=O)(=O)N(C)Cc2ccccc2)c(C)n1C | inactive | –
Cc1ccc(NC(=S)Nc2ccc(OC(F)F)c(Cl)c2)cc1F | inconclusive [cytotoxic, single point] | –
O[C@H]1CN(Cc2cccs2)[C@@H](c2ccccc2)C[C@@H]1n1cc(-c2ccc(F)cc2)nn1 | inactive | –
Cc1ccc(NC(=O)CNc2ccc(N3CCOCC3)cc2)cc1S(=O)(=O)N(C)C | inactive | –
O=C(CNC(=O)c1ccco1)N/N=C/c1cc(Br)ccc1O | inconclusive [cytotoxic, partial curve, poor fit] | –
O=C(c1cccc(Br)c1)N1CCCc2ccccc21 | inactive | –
CCCOc1ccc(N)cc1N | inconclusive [cytotoxic, single point] | –
COc1cc2nc(CCNCc3ccccc3)nc(NC3CCN(C)CC3)c2cc1OC | inconclusive [cytotoxic, single point] | –
COc1ccc(-n2cnc(N)c2C(=O)c2cccc([N+](=O)[O-])c2)cc1 | inconclusive [cytotoxic, single point] | –

SMILES | Potency | activity, negative = less viability
Cc1ccc(NC(=O)Cc2ccc(-c3ccccc3)cc2)nc1 | inconclusive [cytotoxic, single point] | –
O=C(NCCN1CCCC1)c1cccc(Cl)c1 | inconclusive [rising, single point] | –
Cc1ccc(-c2nc3ccc(C)cn3c2Cc2cccc(Cl)c2)cc1 | inconclusive [cytotoxic, single point] | –
Cc1nc2ccc(N=NN(C)C)cc2[nH]1 | inactive | –
O=C(Nc1nc2ccccc2[nH]1)C1CC1 | inconclusive [cytotoxic, single point] | –
COc1cc(OC)c(-c2oc3ccccc3c(=O)c2O)c(OC)c1 | inconclusive [cytotoxic, partial curve] | –
CSC1=NC=C(C#N)C2=NC(c3c(Cl)cccc3Cl)NN12 (stereo not drawn) | inconclusive [cytotoxic, single point] | –
COC1C(CO)OC(n2c3c(Cl)cccc3c3c4c(c5c6cccc(Cl)c6[nH]c5c32)C(=O)NC4=O)C(O)C1O (stereo not drawn) | active: 4.61 µM | –
CCN(CC)CCCN1C(=O)C(=O)/C(=C(/O)c2ccc(OC)cc2)C1c1ccco1 (stereo not drawn) | inconclusive [rising, partial curve, poor fit] | –
Cc1[nH]nc(-c2ccc(OCc3cnn(-c4ccccc4)c3)cc2O)c1Oc1ccc(F)cc1 | inconclusive [cytotoxic, single point] | –
COCCn1c(C)cc(C(=O)COC(=O)c2ccc([N+](=O)[O-])o2)c1C | inactive | –
CC(C)N=C(N)N=C(N)Nc1ccc(Cl)cc1 | inconclusive [cytotoxic, single point] | –
CC1(C(=O)NCc2ccccc2)CCC(=O)N1CCCn1ccnc1 (stereo not drawn) | inconclusive [rising, partial curve, poor fit] | –
Cc1cccc(-n2c(SCC(=O)Nc3ccc4c(c3)OCO4)nnc2-c2ccoc2C)c1 | inconclusive [cytotoxic, single point] | –
Cc1cc(C)cc(C(=O)N2CC(=O)Nc3ccccc32)c1 | active: 1.16 µM | –
COc1cccc(-c2cnc3c(NC(C)=O)cc(-c4ccc(OC)c(OC)c4)cn23)c1 | inconclusive [cytotoxic, partial curve] | –
Cc1nc(N2CCN(C(=O)c3ccco3)CC2)c2c3c(sc2n1)CCCC3 | inconclusive [cytotoxic, single point] | –
CN1CCC(=C2c3ccccc3Sc3ccccc32)CC1 | inconclusive [cytotoxic, single point] | –
Cc1cc(=O)oc2c(C(=O)/C=C\c3cccs3)c(O)ccc12 | inconclusive [cytotoxic, single point] | –
COCCOC(=O)c1[nH]c2c(c1C)C(=O)CC(c1ccco1)C2 (stereo not drawn) | active: 2.31 µM | –
CCN(CC)S(=O)(=O)c1csc(C(=O)OCC(=O)c2ccccc2)c1 | inactive | –
CCn1nc(C)c(CNCc2cn[nH]c2-c2cc3ccccc3o2)c1C | inactive | –
O=C(CCc1nnc(CCCc2ccccc2)o1)NCCN1CCOC1=O | inactive | –
Cc1ccc(NC(=S)/C(C#N)=C2/Nc3ccccc3S2)cc1 | inconclusive [cytotoxic, single point] | –
c1ccc(C2=Nn3c(nnc3-c3ccncc3)SC2)cc1 | inactive | –

SMILES | Potency | activity, negative = less viability
Nc1c2ccccc2nc2ccccc12 | active: 23.1 µM | –
Clc1cccc(CNc2ccn3nc(-c4ccccc4Cl)cc3n2)c1 | inconclusive [cytotoxic, single point] | –
Cc1ccc(C)c(NS(=O)(=O)c2ccc(OCC(=O)NCc3ccco3)cc2)c1 | inactive | –
COc1ccc(OCCn2c(NC(=O)c3ccco3)nc3ccccc32)cc1 | inconclusive [cytotoxic, single point] | –
CC(C)c1ccc(C2=NN(c3ccccc3)C(=O)CC2)cc1 | – | inconclusive: -31.9% [cytotoxic]
CCOC(=O)c1cc(-c2csc(Nc3c(C)cc(C)cc3C)n2)on1 | inconclusive [cytotoxic, single point] | –
COc1ccc(NC(=O)CSc2nc3sc(C)cc3c(=O)n2C)c(OC)c1 | inconclusive [cytotoxic, single point] | –
CC1CC2(CCCCC2)Nc2c1ccc1ccccc21 (stereo not drawn) | inactive | –
O=S(=O)(c1ccc(F)cc1)N1CCN(CC(O)COCC2CCCO2)CC1 (stereo not drawn) | inactive | –
O=C(/C=C/c1ccc(OC2CSC2)cc1)c1ccccc1 | inconclusive [cytotoxic, single point] | –
OCCCNc1ncnc2c1ncn2[C@H]1CN(Cc2ccco2)C[C@@H](CO)O1 | inactive | –
Cc1ccc(C)c(NC(=O)C2C(c3ccccc3)C2(Cl)Cl)c1 (stereo not drawn) | inconclusive [cytotoxic, single point] | –
C=CCN(C(=O)Cn1nc(C)n2c(cc3cc(C)ccc32)c1=O)c1ccccc1 | inactive | –
CC(=O)Nc1ccc(-c2csc(NC(=O)CC(NC(C)=O)c3ccccc3)n2)cc1 (stereo not drawn) | – | inconclusive: -12.4% [cytotoxic]
O=C(Nc1nnc(C(F)(F)F)s1)c1ccc(N2C(=O)C3C4C=CC(C4)C3C2=O)cc1 (stereo not drawn) | inconclusive [cytotoxic, single point] | –
CC(=O)c1c(C)oc2c1cc(NS(=O)(=O)c1ccc(C(=O)O)cc1)c1ccccc12 | inconclusive [cytotoxic, partial curve, poor fit] | –
CC(C)=CC(O)C/C(C)=C/COc1ccc2ccc(=O)oc2c1 (stereo not drawn) | active: 23.1 µM | –
O=C(Cc1ccccc1)NCCSCc1ccccc1 | inactive | –
C[C@@H]1CN([C@H](C)CO)C(=O)Cc2cc(NC(=O)Cn3cnnn3)ccc2O[C@@H]1CN(C)Cc1ccc(Cl)c(Cl)c1 | inactive | –
COc1ccccc1N(C)S(=O)(=O)c1ccc(C(=O)Nc2ccc3nc(C)sc3c2)cc1 | inactive | –
O=c1/c(=C\c2ccc(O)cc2)sc2nc(-c3ccccc3)c(-c3ccccc3)n12 | inactive | –
COc1cc(CN2C[C@@H](CO)O[C@@H](n3cnc4c(N5CCCC5)ncnc43)C2)cc(OC)c1OC | inconclusive [rising, partial curve] | –
CCN(CC)S(=O)(=O)c1ccc(Cl)c(NC(=O)COC(=O)c2cccn2C)c1 | – | inconclusive: -33% [cytotoxic]
